Measured values: the supplement of paper PMC3334620
The full ranking holds about 33,000 sequences; the median of “E-score (-0.5 to 0.5)” is about -0.021, and the highest 2% start at about 0.32. The list shows a part of the results.

What follows are sequences tested against T1, Zap1 (UniProt P47043) (assay: PBM E-score (8-mer binding enrichment) (E-score (-0.5 to 0.5)); higher = stronger / more preferred TF binding; most listed sequences are background and not binding sites). Details: protein concentration: 200 nM; construct: GST-full length.
T1 sequence: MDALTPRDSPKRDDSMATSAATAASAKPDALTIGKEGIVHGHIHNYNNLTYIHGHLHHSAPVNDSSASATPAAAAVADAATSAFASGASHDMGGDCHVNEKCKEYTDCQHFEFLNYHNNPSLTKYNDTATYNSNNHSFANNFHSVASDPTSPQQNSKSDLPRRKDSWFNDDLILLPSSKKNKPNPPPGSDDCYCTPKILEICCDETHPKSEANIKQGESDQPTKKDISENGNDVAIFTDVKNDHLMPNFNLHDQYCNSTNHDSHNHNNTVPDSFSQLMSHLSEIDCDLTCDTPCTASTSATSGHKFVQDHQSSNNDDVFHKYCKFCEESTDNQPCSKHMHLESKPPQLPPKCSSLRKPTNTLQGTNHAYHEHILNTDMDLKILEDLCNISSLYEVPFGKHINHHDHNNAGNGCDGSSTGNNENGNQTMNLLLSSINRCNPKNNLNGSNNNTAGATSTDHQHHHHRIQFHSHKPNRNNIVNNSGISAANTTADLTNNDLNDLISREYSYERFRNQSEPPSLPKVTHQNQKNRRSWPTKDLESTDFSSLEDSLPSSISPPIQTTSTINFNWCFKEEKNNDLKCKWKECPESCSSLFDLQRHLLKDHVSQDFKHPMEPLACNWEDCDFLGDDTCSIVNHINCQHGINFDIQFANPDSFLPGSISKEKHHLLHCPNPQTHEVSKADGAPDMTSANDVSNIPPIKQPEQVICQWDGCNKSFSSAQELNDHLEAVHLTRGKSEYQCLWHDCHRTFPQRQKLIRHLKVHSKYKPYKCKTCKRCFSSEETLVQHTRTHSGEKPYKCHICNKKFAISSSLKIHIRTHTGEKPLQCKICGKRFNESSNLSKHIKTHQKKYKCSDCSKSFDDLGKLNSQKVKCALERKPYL
Summary of the method: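 GST-tagged yeast TFs (full-length or DNA-binding domain) were made by PURExpress in vitro transcription/translation and applied at about 100-200 nM to universal all-10-mer Agilent arrays. The arrays were made double-stranded by primer extension, on fresh or once-stripped slides. Bound protein was detected with fluorescent anti-GST, and scans were normalised with masliner. Each ungapped eight-base word, pooled with its reverse complement, received an E-score (modified Wilcoxon-Mann-Whitney statistic) from the Universal PBM Analysis Suite.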

Going from CCCGGAAC to AACTGTAA, the “PBM E-score” value rises from 0.0109 to 0.285.

Compared with CGGGCTTA, ACCTCATC is higher in “PBM E-score” value: -0.183 for the first, 0.127 for the second.

Compared with CGGACCCG, CGTCGGCC is lower in “PBM E-score” value: 0.228 for the first, -0.0989 for the second.

First: ATGACAAG
Second: GAGCCTTA
The “PBM E-score” value of the first is higher: -0.0631 for the first, -0.248 for the second.

First: GACTTGGC
Second: GTACGTAC
The “PBM E-score” value of the first is higher: -0.164 for the first, -0.274 for the second.

First: GTCATTCA
Second: GCAAAACA
The “PBM E-score” value of the first is higher: 0.17 for the first, 0.0837 for the second.

Going from AATACTAT to ACCCGTAA, the “PBM E-score” value rises from -0.0176 to 0.333.

Compared with CGCGGGGA, CCCTCGAC is lower in “PBM E-score” value: 0.142 for the first, -0.151 for the second.

Compared with AAGATATA, CCTGTGTA is higher in “PBM E-score” value: 0.0198 for the first, 0.137 for the second.

Compared with CTGCAACA, ATCTATCA is higher in “PBM E-score” value: 0.101 for the first, 0.11 for the second.

Going from AGAGATAC to CCAAGAGG, the “PBM E-score” value falls from 0.125 to 0.0456.

First: AGAGCAAA
Second: CAGGAGAG
The “PBM E-score” value of the first is higher: -0.0548 for the first, -0.183 for the second.

First: AGGGTGTC
Second: CAAGACCA
The “PBM E-score” value of the first is higher: 0.304 for the first, -0.00438 for the second.

Compared with AAGGAGGC, ATAGAATA is higher in “PBM E-score” value: -0.186 for the first, 0.0849 for the second.

First: GTCTGCTA
Second: CCCCCTCG
The “PBM E-score” value of the first is higher: -0.0556 for the first, -0.135 for the second.

Compared with CATGACGC, ACTTCTGC is higher in “PBM E-score” value: -0.108 for the first, -0.0871 for the second.

Compared with ATTATGGG, CTCAGAAA is higher in “PBM E-score” value: -0.012 for the first, 0.137 for the second.

Going from ACTTGTTG to CTTACCCC, the “PBM E-score” value rises from -0.101 to -0.0439.

First: AGTACGCA
Second: AAGAGACG
The “PBM E-score” value of the first is lower: -0.141 for the first, -0.107 for the second.

Going from CAGACTAA to ACCAATAT, the “PBM E-score” value rises from -0.0449 to 0.165.

Compared with AAGGAGTG, ATGTACCG is higher in “PBM E-score” value: -0.181 for the first, 0.0596 for the second.

Going from CGGCTCTA to AACAGCAA, the “PBM E-score” value rises from -0.123 to -0.0172.

Going from ACCTCGCA to CGCCAAGC, the “PBM E-score” value falls from 0.191 to -0.168.

First: ACACACGC
Second: AACCGTGA
The “PBM E-score” value of the first is lower: -0.0158 for the first, 0.0669 for the second.

First: GAGACCTC
Second: CACGGTGA
The “PBM E-score” value of the first is higher: 0.0168 for the first, -0.103 for the second.

Going from CTCGGCGC to ACGCAATG, the “PBM E-score” value falls from -0.018 to -0.0468.

First: CGGCCATA
Second: ATAGCACC
The “PBM E-score” value of the first is higher: 0.0456 for the first, 0.045 for the second.

First: CGCCATAG
Second: ATGTAAAG
The “PBM E-score” value of the first is lower: -0.168 for the first, 0.123 for the second.

Going from AGGTCTTA to CAGAGTCG, the “PBM E-score” value falls from 0.172 to -0.169.

Compared with CAGCATAG, GTCATAAC is higher in “PBM E-score” value: -0.164 for the first, 0.315 for the second.

First: CATTTAAA
Second: CCACCGGG
The “PBM E-score” value of the first is higher: 0.167 for the first, 0.151 for the second.

First: AGGCCAGA
Second: CCGGTTTA
The “PBM E-score” value of the first is lower: -0.12 for the first, 0.0867 for the second.

Compared with AAAAGTGC, GAATCATA is higher in “PBM E-score” value: -0.171 for the first, 0.0497 for the second.

First: CATCACTA
Second: AACCCGCG
The “PBM E-score” value of the first is lower: 0.0202 for the first, 0.27 for the second.

Compared with CTAAACAG, CATAGCAC is lower in “PBM E-score” value: 0.00211 for the first, -0.146 for the second.

Going from CGGTGACA to AACATGTG, the “PBM E-score” value falls from 0.193 to 0.108.

Compared with CCCCGACG, CTAGACGC is lower in “PBM E-score” value: 0.144 for the first, -0.226 for the second.

Going from CTAAAGAG to ATTACTTA, the “PBM E-score” value rises from -0.131 to 0.0402.

Going from CTTATTTC to CGTTACCA, the “PBM E-score” value rises from 0.137 to 0.31.

Going from CCGTACCA to GGCAGGAC, the “PBM E-score” value falls from 0.102 to -0.264.

First: GCCTCCCA
Second: GAACGACA
The “PBM E-score” value of the first is lower: -0.305 for the first, -0.0514 for the second.

Compared with ACGTTGCT, CATAATGC is higher in “PBM E-score” value: -0.129 for the first, -0.0714 for the second.

Going from CACTGTAC to GATTTACA, the “PBM E-score” value rises from -0.084 to 0.0139.

Going from AGTTTTTG to GCACCGAC, the “PBM E-score” value falls from 0.203 to -0.0839.

First: GAAGCTGA
Second: CACTACGA
The “PBM E-score” value of the first is lower: -0.0921 for the first, -0.0155 for the second.

Going from AGATAACG to GGATTAGA, the “PBM E-score” value falls from 0.0406 to -0.243.

Compared with GACATGAC, GGTAATTA is higher in “PBM E-score” value: -0.0772 for the first, 0.252 for the second.
